The target in this test is Genome polyprotein (dengue virus type 2) (UniProt P29990).
Where [1] appears, read: Thailand/16681/1984, Concentration 25.0 uM, Number of replicates 1.0.

Experimental findings from ChEMBL document CHEMBL5606460, “ASAP - DENV-2 NS2B-NS3 protease fluorescence single point” (2024) are described below.

The campaign covered roughly 2,000 compounds. About 110 (5.5%) showed an effect of 50% or more. The list shows a part of the results.

In general, inhibition refers to the relative decrease from the control value, in per cent. `NCc1cccc(NC(=O)[C@@H](CO)NC(=O)OCc2ccccc2)c1`: the inhibition reads like this: (Thailand/16681/1984, Concentration 49.5 uM, Number of replicates 2.0, Standard deviation 0.4735169770341957 %) -3.34%; (Thailand/16681/1984, Concentration 99.01 uM, Number of replicates 2.0, Standard deviation 2.1222171442022573 %) -3.24%; (Thailand/16681/1984, Concentration 198.0 uM, Number of replicates 2.0, Standard deviation 1.1527028197814282 %) -3.94%.

For `Cc1c(C(=O)NCc2ccccn2)cc(C2CC2)n1C`, the inhibition by setting is: (Thailand/16681/1984, Concentration 49.5 uM, Number of replicates 2.0, Standard deviation 0.7699057540551737 %) -4.4%; (Thailand/16681/1984, Concentration 99.01 uM, Number of replicates 2.0, Standard deviation 1.5944737789928543 %) -3.84%; (Thailand/16681/1984, Concentration 198.0 uM, Number of replicates 2.0, Standard deviation 0.26712082530325487 %) -3.68%.

In the case of `CN(c1ccc(Cl)cc1C(N)=O)S(=O)(=O)c1ccc(Oc2ccccc2Cl)cc1`, the inhibition reads like this: (Thailand/16681/1984, Concentration 49.5 uM, Number of replicates 2.0, Standard deviation 0.11551161483271621 %) 1.15%; (Thailand/16681/1984, Concentration 99.01 uM, Number of replicates 2.0, Standard deviation 0.4161514072882 %) 3.78%; (Thailand/16681/1984, Concentration 198.0 uM, Number of replicates 2.0, Standard deviation 1.5666270190069185 %) 5.59%.

With `Cc1cc(Br)ccc1CNC(=O)C1CCN(c2ccc(C=O)cc2)CC1`, under setting [1], the inhibition turned out to be 4.75%.

As for `O=Cc1ccc(N2CCC(C(=O)NCc3cccc(OC4CCCC4)c3)CC2)cc1`, the inhibition under setting [1] came out at 5.45%.

Take `O=C(N[C@H]1CCn2c(n[nH]c2=O)C1)c1n[nH]cc1[C@H]1CCCNC1`: the inhibition by setting is: (Thailand/16681/1984, Concentration 49.5 uM, Number of replicates 2.0, Standard deviation 0.8990746863629206 %) -0.826%; (Thailand/16681/1984, Concentration 99.01 uM, Number of replicates 2.0, Standard deviation 0.2162331418796865 %) -2%; (Thailand/16681/1984, Concentration 198.0 uM, Number of replicates 2.0, Standard deviation 1.1386111474223564 %) -1.46%.

On to `O=C(Nc1cccc(N2CCNCC2)c1)c1cccc2ncccc12`, for which the inhibition runs as follows: (Thailand/16681/1984, Concentration 49.5 uM, Number of replicates 2.0, Standard deviation 0.7096247814305581 %) -0.9%; (Thailand/16681/1984, Concentration 99.01 uM, Number of replicates 2.0, Standard deviation 1.3131180031190148 %) -0.574%; (Thailand/16681/1984, Concentration 198.0 uM, Number of replicates 2.0, Standard deviation 2.0180605857813765 %) 1.07%.

With `Cc1cc(CO)c2cccc(NCC3CCOCC3)c2n1`, the inhibition came to 7.05% (Thailand/16681/1984, Concentration 49.95 uM, Number of replicates 2.0, Standard deviation 0.7338707043405414 %) and 15.6% (Thailand/16681/1984, Concentration 99.9 uM, Number of replicates 2.0, Standard deviation 3.3835516958528777 %).

With `Cc1cc(CO)c2cccc(N3CCC(C(=O)O)CC3)c2n1`, the inhibition is, setting by setting: (Thailand/16681/1984, Concentration 49.95 uM, Number of replicates 2.0, Standard deviation 1.005973455725178 %) 0.555%; (Thailand/16681/1984, Concentration 99.9 uM, Number of replicates 2.0, Standard deviation 3.4807086110401904 %) 12.1%.

In the case of `Cc1nn(CC(=O)Nc2nc(C)c(C)s2)cc1C1CCNCC1`, the inhibition is, setting by setting: (Thailand/16681/1984, Concentration 49.5 uM, Number of replicates 2.0, Standard deviation 0.2878961870460328 %) -2.33%; (Thailand/16681/1984, Concentration 99.01 uM, Number of replicates 2.0, Standard deviation 3.4829330374108984 %) 0.646%; (Thailand/16681/1984, Concentration 198.0 uM, Number of replicates 2.0, Standard deviation 2.5492665464036164 %) 0.863%.

Turning to `CN(C(=O)C1CCN(c2ccc(C=O)cc2)CC1)C1CCN(C(=O)OC(C)(C)C)CC1`, under setting [1], the inhibition was 12.2%.

For `Cc1cc(CO)c2cccc(Nc3cc(C)on3)c2n1`, the inhibition (Thailand/16681/1984, Concentration 49.95 uM, Number of replicates 2.0, Standard deviation 1.3194982141200182 %) stood at 1.66% and the inhibition (Thailand/16681/1984, Concentration 99.9 uM, Number of replicates 2.0, Standard deviation 1.2714193652686099 %) was 2.71%.

Take `O=Cc1ccc(N2CCC(C(=O)NCC34CC5CC(CC(C5)C3)C4)CC2)cc1`: under setting [1], the inhibition came out at 11.8%.

Regarding `Cn1ncc2c(C(=O)Nc3ccc4c(c3)CNC4)cc(-c3cccnc3)nc21`, the inhibition is, setting by setting: (Thailand/16681/1984, Concentration 99.5 uM, Number of replicates 2.0, Standard deviation 0.6966055883154065 %) -0.716%; (Thailand/16681/1984, Concentration 295.6 uM, Number of replicates 2.0, Standard deviation 0.8690208118243027 %) 16.8%.

For `Cc1cnccc1NC(=O)c1nc(C2CC2)n(C)n1`, the inhibition was -2.92% (Thailand/16681/1984, Concentration 49.5 uM, Number of replicates 2.0, Standard deviation 1.7027660601441394 %); -2.09% (Thailand/16681/1984, Concentration 99.01 uM, Number of replicates 2.0, Standard deviation 1.340760456256794 %); -1.34% (Thailand/16681/1984, Concentration 198.0 uM, Number of replicates 2.0, Standard deviation 2.3726303476264903 %).

`Cc1cc(CO)c2cccc(CC(=O)N(c3ncccn3)S(=O)(=O)c3ccc(N)cc3)c2n1`: the inhibition was 99.6% (Thailand/16681/1984, Concentration 49.95 uM, Number of replicates 2.0, Standard deviation 0.013152514133703636 %) and 99.4% (Thailand/16681/1984, Concentration 99.9 uM, Number of replicates 2.0, Standard deviation 0.02076996694616858 %).

`Cc1cc(CO)c2cccc(Cc3ccccc3C(=O)N3CC[C@@H](CO)C3)c2n1`: the inhibition reads like this: (Thailand/16681/1984, Concentration 49.95 uM, Number of replicates 2.0, Standard deviation 0.1537915321395842 %) -0.863%; (Thailand/16681/1984, Concentration 99.9 uM, Number of replicates 2.0, Standard deviation 0.5490500301245094 %) 3.93%.

Take `Cc1cc(CO)c2cccc(C[C@H](NC(=O)c3cnn(Cc4c(C)noc4C)c3)C(=O)O)c2n1`: the inhibition is, setting by setting: (Thailand/16681/1984, Concentration 49.95 uM, Number of replicates 2.0, Standard deviation 1.1924398800818634 %) 6.27%; (Thailand/16681/1984, Concentration 99.9 uM, Number of replicates 2.0, Standard deviation 0.4114422556103808 %) 14.3%.

Consider `CC(=O)N[C@@H](Cc1cnc[nH]1)C(=O)Nc1cccc2cccnc12`, for which the inhibition (Thailand/16681/1984, Concentration 49.95 uM, Number of replicates 2.0, Standard deviation 0.10364955290671912 %) is -6.45% and the inhibition (Thailand/16681/1984, Concentration 99.9 uM, Number of replicates 2.0, Standard deviation 0.355368739652335 %) is 29.6%.

As for `C#CCn1ccnc(N2CC[C@H](CO)C2)c1=O`, the inhibition came to 7.96% (Thailand/16681/1984, Concentration 49.5 uM, Number of replicates 2.0, Standard deviation 2.0763887684739366 %); 17.7% (Thailand/16681/1984, Concentration 99.01 uM, Number of replicates 2.0, Standard deviation 1.566880911622348 %); 33.4% (Thailand/16681/1984, Concentration 198.0 uM, Number of replicates 2.0, Standard deviation 2.295023353488077 %).

Turning to `O=Cc1ccc(N2CCC(C(=O)Nc3ccncc3I)CC2)cc1`, under setting [1], the inhibition was determined as 12.8%.

As to `O=C(Nc1ccc(Cl)c2cccnc12)c1ccncc1`, under “Thailand/16681/1984, Concentration 49.95 uM, Number of replicates 2.0, Standard deviation 4.407566362964235 %”, the inhibition was -8.51%.

For the molecule `CC(=O)Nc1ccc(C(=O)N[C@@H](Cc2cccc3c(CO)cc(C)nc23)C(=O)O)cn1`, the inhibition (Thailand/16681/1984, Concentration 49.95 uM, Number of replicates 2.0, Standard deviation 1.0579951422547804 %) turned out to be 6.92% and the inhibition (Thailand/16681/1984, Concentration 99.9 uM, Number of replicates 2.0, Standard deviation 0.5756140086291676 %) is 18.2%.

`O=Cc1ccc(N2CCC(C(=O)N3CCN(CC(F)(F)F)CC3)CC2)cc1`: the inhibition under setting [1] came to 13.1%.

For `O=Cc1ccc(N2CCC(C(=O)NCc3ccc(S(F)(F)(F)(F)F)cc3)CC2)cc1`, the inhibition under setting [1] amounted to 7.87%.
